Test results as given in PMC4336329 (PLoS ONE, 2015).
Screen size: about 310,000 compounds; about 2,200 (0.71%) showed an effect of 50% or more. The effect is printed as a negative number. The list shows a part of the results.

Molecular target: human ether-à-go-go-related gene (hERG) potassium channel (human, UniProt Q12809)
Experiment: primary screen, population patch clamp on CHO cells stably expressing hERG

human ether-à-go-go-related gene (hERG) potassium channel, sequence (Q12809 whole entry, looked up): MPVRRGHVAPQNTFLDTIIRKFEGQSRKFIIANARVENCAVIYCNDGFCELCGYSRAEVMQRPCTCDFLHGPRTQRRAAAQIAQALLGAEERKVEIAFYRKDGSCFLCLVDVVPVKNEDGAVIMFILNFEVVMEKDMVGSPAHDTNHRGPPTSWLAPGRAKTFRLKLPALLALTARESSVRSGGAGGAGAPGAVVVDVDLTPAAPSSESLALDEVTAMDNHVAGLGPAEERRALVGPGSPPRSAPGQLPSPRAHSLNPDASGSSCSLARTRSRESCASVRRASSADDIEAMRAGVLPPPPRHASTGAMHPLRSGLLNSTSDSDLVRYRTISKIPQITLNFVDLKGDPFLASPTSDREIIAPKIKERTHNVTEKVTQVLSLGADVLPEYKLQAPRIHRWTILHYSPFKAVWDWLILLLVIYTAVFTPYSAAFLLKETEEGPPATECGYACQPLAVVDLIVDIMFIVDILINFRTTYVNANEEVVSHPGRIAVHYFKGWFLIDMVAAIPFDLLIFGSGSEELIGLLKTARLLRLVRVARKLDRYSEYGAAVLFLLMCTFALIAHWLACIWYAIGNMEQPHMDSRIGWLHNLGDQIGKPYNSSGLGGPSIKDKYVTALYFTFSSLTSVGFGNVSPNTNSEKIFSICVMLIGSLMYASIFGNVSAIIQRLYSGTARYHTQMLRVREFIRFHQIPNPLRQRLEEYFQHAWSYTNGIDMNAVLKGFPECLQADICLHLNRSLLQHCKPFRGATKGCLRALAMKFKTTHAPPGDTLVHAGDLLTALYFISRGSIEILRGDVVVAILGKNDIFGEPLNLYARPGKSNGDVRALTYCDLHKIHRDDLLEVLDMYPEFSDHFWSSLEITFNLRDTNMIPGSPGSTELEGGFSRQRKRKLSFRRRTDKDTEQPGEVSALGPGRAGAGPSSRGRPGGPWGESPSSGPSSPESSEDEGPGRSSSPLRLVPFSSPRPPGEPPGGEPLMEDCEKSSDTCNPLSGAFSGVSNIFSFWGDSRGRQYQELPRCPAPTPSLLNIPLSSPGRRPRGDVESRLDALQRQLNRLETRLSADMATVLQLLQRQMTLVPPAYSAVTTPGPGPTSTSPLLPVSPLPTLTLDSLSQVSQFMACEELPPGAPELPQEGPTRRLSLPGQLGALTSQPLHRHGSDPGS

| SMILES | hERG current change (%, negative = inhibition) at 1uM [%] |
| --- | --- |
| Cc1ccc(NC(=O)C(NC2CCCc3ccccc32)c2ccccc2)cc1Cl.O=C(O)C(=O)O (stereo not drawn) | 0.417 |
| Cc1ccc(OP(=O)(O)Oc2ccc(C)cc2)cc1 | 7.36 |
| Oc1ccc(-c2nnc(Nc3ccccc3)c3ccccc23)cc1 | -27.7 |
| COc1cc(CNc2ccc3[nH]c(=O)[nH]c3c2)ccc1OCc1ccccc1 | 11.9 |
| CN(C)CCN=Cc1c(O)n(-c2cccc3ccccc23)c(=O)[nH]c1=O | 1.85 |
| CC(C)C(C(=O)NCC1CCCO1)N(Cc1ccccc1)C(=O)CNS(=O)(=O)c1ccccc1 (stereo not drawn) | 11.9 |
| COc1ccc(C2C(C(C)=O)=C(O)C(=O)N2c2nccs2)cc1 (stereo not drawn) | -0.0288 |
| CCCCCCCCCn1cc(C(C)=O)c(=O)[nH]c1=O | 5.48 |
| Cc1ccc(C(C)C)c(OCC(=O)Nc2ccccc2N2CCN(C)CC2)c1 | 1.51 |
| CCOc1cc(NC(=S)Nc2ccccc2)c(OCC)cc1NC(=O)c1ccccc1 | -1.81 |
| O=S(=O)(NCc1csc(-c2ccccc2)n1)c1ccc(Cl)s1 | 9.46 |
| CC(=O)Cc1ccc(OC(C)C)cc1 | 9.97 |
| Cc1ccc(-n2cc(CN3CCNC(=O)CC3)c(-c3cccc(C)c3)n2)cc1 | 14.7 |
| Cc1ccc(C(=O)O/N=C(\N)c2ccccn2)cc1C | 2.24 |
| COc1ccc2nc(Nc3nc4ccc(NC(C)=O)cc4s3)sc2c1 | 12.5 |
| O=S(=O)(NCc1ccccc1F)NCc1ccccc1F | -2.65 |
| CCN(CC(=O)Nc1c(F)cccc1F)C(=O)c1cccnc1SC | 5.46 |
| Cc1cc(=O)[nH]c(N/N=C/c2ccccc2C(F)(F)F)n1 | 12.7 |
| CCOc1ccc(N2C(=O)CC(N3CCN(c4ccc([N+](=O)[O-])cc4)CC3)C2=O)cc1 (stereo not drawn) | -2.45 |
| COCCNC(=O)CCCn1c(=O)c2ccccc2n(Cc2ccccc2C#N)c1=O | 17.3 |
| CC(Oc1ccccc1)C(=O)N1CCc2ccccc2C1 (stereo not drawn) | 10.8 |
| O=C(Nc1ccc(F)cc1F)c1sccc1SCc1cccc(C(F)(F)F)c1 | 0.0128 |

| SMILES | hERG current change (%, negative = inhibition) at 1uM [%] |
| --- | --- |
| CC1(C)Cc2c(C#N)c(N3CCN(C(=O)c4ccco4)CC3)nc(-c3ccco3)c2CS1 | 14.4 |
| COc1ccccc1CNC(=O)C(C)Oc1ccccc1 (stereo not drawn) | -1.19 |
| CC(C(=O)NC(=O)NC1CCCCC1)N(C)CC(=O)Nc1ccc(F)c(F)c1F (stereo not drawn) | 12.1 |
| Cc1c(NC(=O)CSC2=C(C#N)C(c3ccccc3F)CC(=O)N2)c(=O)n(-c2ccccc2)n1C (stereo not drawn) | 12.7 |
| Cc1ccccc1C(=O)Nn1cnc2ccccc2c1=O | 23.3 |
| Cc1onc(-c2ccccc2)c1C(=O)NCC1CCCO1 (stereo not drawn) | 16.8 |
| CC12CCC(C(=O)NCc3ccc(Cl)cc3)(OC1=O)C2(C)C (stereo not drawn) | -1.52 |
| CN(Cc1ccccc1)C1(CNC(=O)CCC(F)(F)F)Cc2ccccc2C1 | 8.69 |
| COc1ccccc1C(=O)N1CCN(Cc2cn[nH]c2-c2ccc(F)cc2F)CC1 | 9.84 |
| CCCCn1c(N)c(N(Cc2ccccc2OC)C(=O)COc2ccc(F)cc2Cl)c(=O)[nH]c1=O | 14.7 |
| O=C(NCCCN1CCCC1=O)C1CCN(S(=O)(=O)c2ccccc2)CC1 | 22.1 |
| NC(=O)CSc1nnc(COc2ccccc2)n1N | 14.1 |
| CNC(=S)Nc1cc(OC)ccc1OC | 7.4 |
| CCN(CCn1cccn1)C(=O)CCc1nnc(C2(c3ccc(Cl)cc3)CCC2)o1 | 13 |
| Cc1cc(NC(=O)c2ccc(C#N)cc2)on1 | 9.35 |
| Cc1c(C(=O)O)oc2c1/C(=N\O)CCC2 | 15.9 |
| COc1ccccc1CNC(=O)C(CCSC)NS(=O)(=O)c1ccc2c(c1)oc(=O)n2C (stereo not drawn) | 15.7 |
| CCOCCCN(C(=O)CCC(=O)Nc1cc(C)on1)C(C(=O)NC(C)(C)C)c1ccccc1Cl (stereo not drawn) | 15.5 |
| Cc1ccc(/C=C/c2ccc(N(C)C)cc2)[n+](C)c1.[I-] | -2.19 |
| Cc1ccc(NC(=O)N(CCCN2CCOCC2)Cc2cc3cc4c(cc3[nH]c2=O)OCO4)cc1 | -0.107 |
| COc1ccc(OC)c(NC(=S)NCCN2CCOCC2)c1 | 4.52 |
| O=C(NCc1ccncc1)C(=O)N/N=C/c1ccccc1OCc1ccccc1 | 14.5 |

| SMILES | hERG current change (%, negative = inhibition) at 1uM [%] |
| --- | --- |
| CCOC(=O)N1CCC(N2Cc3cccc(C(=O)Nc4ccccc4OC)c3C2=O)CC1 | -41.4 |
| NNC(=O)c1cc2ccccc2[nH]1 | 13.9 |
| CC(C)CN(C(=O)COC(=O)c1nc(Cl)ccc1Cl)C1CCS(=O)(=O)C1 (stereo not drawn) | 13 |
| Cc1ccc(C(=O)Nc2ccc3c(c2)OCO3)cc1S(=O)(=O)N1CCOCC1 | 9.32 |
| O=C(Nc1nnc(-c2ccc3c(c2)CCCC3)o1)c1ccccc1 | -1.81 |
| CN(c1ccccc1)S(=O)(=O)c1cccc(NC(=O)Cc2n[nH]c(=O)c3ccccc23)c1 | 1.58 |
| Cc1cc(/C=N/Nc2nc(N3CCOCC3)nc(N3CCOCC3)n2)c(C)n1-c1ccccc1 | 8.17 |
| CCOc1ncccc1C(=O)OCC(=O)NCc1ccc2c(c1)OCO2 | 2.77 |
| O=c1c2ccccc2nc(-c2ccccc2Cl)n1-c1ccc(O)cc1 | 11.6 |
| O=C(O)[C@H]1Cc2ccccc2CN1S(=O)(=O)c1ccc(F)cc1 | 14.4 |
| Cc1csc(/N=C/N(C)C)c1C#N | 11.2 |
| Cc1csc(NC(=O)CSc2nc(C(C)C)nc3ccccc23)n1 | 6.41 |
| COc1cc(NC(=O)c2ccc(Cl)cc2)c(Cl)cc1NC(=O)c1cccnc1 | 11.5 |
| Cc1ccc(C)c(S(=O)(=O)N2CCC(c3nc4c(nnn4Cc4ccc(F)cc4)c(=O)[nH]3)CC2)c1 | 5.48 |
| COc1ccc2cc(CCNC(=O)c3ccc(S(=O)(=O)N4CCCC4)cc3)c(=O)[nH]c2c1 | 6.9 |
| COc1cccc(C(=O)/C=C/Nc2cc(C)ccc2O)c1 | -3.17 |
| COc1ccc(NC(=O)CN(C)S(=O)(=O)c2ccc(C)cc2)c([N+](=O)[O-])c1 | -5.97 |
| O=C(O)c1ccc(CSc2nnc(-c3ccco3)n2-c2ccccc2)cc1 | 7.2 |
| CN1CCN(C(=O)c2ccc3c(=O)n(CCc4ccccc4)c(=S)[nH]c3c2)CC1 | 1.78 |
| COc1ccc(C2CC(c3ccc(Br)cc3)=NN2C(=O)c2cccnc2)cc1 (stereo not drawn) | -9.46 |
| COc1ccc2c(c1)c1nc3n(c(=O)c1n2CC(=O)Nc1ccccc1)CCCS3 | 22.2 |
| Cc1cccc(C(=O)NC2=NCCS2)c1 | 14.1 |

| SMILES | hERG current change (%, negative = inhibition) at 1uM [%] |
| --- | --- |
| NC(=O)C1CC(=O)N(c2ccc(OCc3ccccc3Cl)cc2)C1 (stereo not drawn) | 4.57 |
| CCCN1C2CCCC1CC(NC(=O)c1ccccc1Br)C2 (stereo not drawn) | 2.99 |
| N#CC(c1ccc(Cl)nn1)c1c(F)cccc1Cl (stereo not drawn) | 13.2 |
| COc1ccc(NC(=O)CCC(=O)OCc2ccc(C(=O)Oc3ccc(Cl)cc3)cc2)cc1 | 7.13 |
| COc1ccc(OC)c(Nc2ncnc3ccccc23)c1.Cl | 2.1 |
| Cc1ccc(NC(=O)CCNS(=O)(=O)c2ccc3c(c2)CCC(=O)N3)c(Br)c1 | -9.97 |
| Cc1ccc(-c2nn(-c3ccccc3)cc2/C=C/C(=O)Nc2cccc(S(N)(=O)=O)c2)cc1 | 5.51 |
| O=S(=O)(Nc1ccc(S(=O)(=O)Nc2nccs2)cc1)c1ccc2c(c1)OCCO2 | -10.1 |
| CCN(CC)S(=O)(=O)c1ccc(OC)c(NC(=S)Nc2cc(C)ccc2C)c1 | 6.93 |
| O=C(CN1C(=O)/C(=C\c2cccc(Br)c2)Oc2ccccc21)NCCCN1CCOCC1 | 0.939 |
| S=C(Nc1ccc(Cl)c(Cl)c1)N1CCN(c2ccccn2)CC1 | 9.81 |
| O=C(CSc1nnc(CNC(=O)c2c(F)cccc2Cl)o1)c1ccccc1 | 3.39 |
| CNC(=S)NNC(=O)c1cccn(Cc2ccc(Cl)c(Cl)c2)c1=O | 4.85 |
| CCOC(=O)C1CCCN(C(=O)c2cccc(N3C(=O)c4ccccc4C3=O)c2)C1 (stereo not drawn) | 1.91 |
| Cc1cc(-c2ccco2)n2c(nc3ccccc32)c1C#N | -2.45 |
| COc1ccccc1-c1nnc(N)s1 | 8.73 |
| CCCc1ccc(OCC(=O)Nc2cc(S(=O)(=O)CC)ccc2O)cc1 | -30.9 |
| CC(=O)Nc1ccc(S(=O)(=O)N2CCCN(c3nc(C)cc(C)c3C#N)CC2)cc1 | 1.96 |
| O=C(C1CCC(=O)N(C2CC2)C1)N1CCN(c2ccccc2Cl)CC1 (stereo not drawn) | 16.1 |
| O=S(=O)(NCc1cccnc1)c1cccn1-c1ncc(C(F)(F)F)cc1Cl | 3.48 |
| CCOC(=O)c1ccc(NC(=O)N2CCc3ccccc32)cc1 | -3.34 |
